Screen size: about 130,000 compounds; about 1,900 (1.5%) were called active. Inconclusive means that the source gave no clear call. Such entries were picked first, then a sample of the others. Calls follow the shape of the dose curve; as a rule, active = well fitted cell-killing curve with a large enough effect; inconclusive = small, poorly fitted or top-dose-only effect; inactive = no such curve, though single readings can be large or run the other way. Potencies of inconclusive entries are doubtful fits and often do not repeat.
Assay: qHTS Screen for Compounds that Selectively Target Cancer Cells with p53 Mutations: Cytotoxicity of p53ts Cells at the Nonpermissive Temperature; also: nearly all actives have a fitted effect of over 55% in size
Details: H1299-p53A138V viability at 39C, ATP luminescence, 24 h; activity change, negative = cell killing: at 46.1 µM (top of the series)
% is scaled to controls: 0 for no effect and ±100 for the full control effect; potency is read from the fitted curve at half-maximal effect; tags tell the direction and shape of the fitted curve.

Row | Compound | activity change, negative = cell killing | Potency
1 | COc1cccc2sc(N(Cc3cccnc3)C(=O)c3ccc(S(=O)(=O)N(C)C)cc3)nc12 | inactive: -9.08% | –
2 | CCC1C(=O)n2nc(-c3ccccc3)cc2N=C1C (stereo not given) | – | inconclusive: 12.6 µM [cytotoxic, partial curve]
3 | Nc1n[nH]c(-c2ccc(Br)cc2)c1Cl | – | inconclusive: 20 µM [cytotoxic, single point]
4 | Cc1nc2c(C(=O)NCCC(C)C)cnn2c(C)c1Cc1c(F)cccc1Cl | – | inconclusive: 20 µM [cytotoxic, partial curve, poor fit]
5 | Cc1cc(C)cc(N2C(=O)CS(=O)(=O)C23C(=O)N(Cc2ccccc2)c2ccccc23)c1 (stereo not given) | inactive: -10.3% | –
6 | CCOC(=O)Cn1c(-c2nonc2NC(=O)c2ccccc2F)nc2ccccc21 | – | inconclusive: 12.6 µM [cytotoxic, partial curve]
7 | CCN(CC)S(=O)(=O)c1ccc2oc(SCC3CN=C(c4ccc(OC)cc4)S3)nc2c1 (stereo not given) | inactive: -4.09% | –
8 | O=C1[C@H]2[C@H]3[C@H](O)[C@H](O)C/C(=N/OC[C@@H](O)COCc4ccco4)[C@@H]3CC[C@@H]2C(=O)N1C[C@@H]1CCCO1 | inactive: 11.6% [at 9.22 µM] | –
9 | CCOc1ccc2nc(N3CCCC(C(=O)NCc4ccc(C)cc4)C3)sc2c1 (stereo not given) | – | inconclusive: 20 µM [cytotoxic, partial curve, poor fit]
10 | Cc1ccc(C)c(N(C)S(=O)(=O)c2ccc3[nH]cc(C(=O)NC4CCCC4)c(=O)c3c2)c1 | – | inconclusive: 12.6 µM [cytotoxic, partial curve]
11 | Cc1ccc(NS(=O)(=O)c2ccc3[nH]c4c(c3c2)CCCCC4)cc1 | – | inconclusive: 25.1 µM [cytotoxic, partial curve, poor fit]
12 | COc1ccc2c(c1)S/C(=C\C(=O)c1ccncc1)N2C | – | inconclusive: 15.8 µM [cytotoxic, partial curve]
13 | c1cnc2c(OCc3nc4ccccc4[nH]3)cccc2c1 | – | inconclusive: 20 µM [cytotoxic, partial curve]
14 | CCC(C(=O)NCCc1cc(OC)ccc1OC)n1nc(C)c2sc3ccccc3c2c1=O (stereo not given) | inactive: -18% | –
15 | CN1CCN(C2=Cc3ccc(Cl)cc3Sc3ccc(F)cc32)CC1 | – | inconclusive: 17.8 µM [cytotoxic, single point]
16 | Cc1ccc(-n2ncc3c(N4CCCCCC4)ncnc32)cc1C | – | inconclusive: 20 µM [cytotoxic, partial curve, poor fit]
17 | O=S(=O)(NCCc1nnc2ccc(SCc3c(F)cccc3Cl)nn12)c1ccccc1 | – | inconclusive: 0.631 µM [cytotoxic, partial curve]
18 | COC(=O)c1ccc(CN(Cc2ccc(OC)c(OC)c2)S(=O)(=O)c2cc(C(=O)Nc3cccc(C)c3)ccc2F)cc1 | – | inconclusive: 0.501 µM [cytotoxic, full curve]
19 | N=c1c2c(-c3ccccc3)c(-c3ccccc3)oc2ncn1CCN1CCOCC1 | – | inconclusive: 20 µM [cytotoxic, single point]
20 | CC(C)Oc1cccc(-c2cc(C(=O)N3CCN(S(C)(=O)=O)CC3)c3ccccc3n2)c1 | – | inconclusive: 10 µM [cytotoxic, partial curve]
21 | CC(C)Oc1ccc(CNC(=O)c2ccccc2NC(=O)c2nsc3ccccc23)cc1 | – | inconclusive: 10 µM [cytotoxic, partial curve]
22 | O=C(CN1CCN(CC(=O)Nc2ccccc2F)CC1)Nc1ccc(Cl)c(C(F)(F)F)c1 | – | inconclusive: 10 µM [cytotoxic, partial curve, poor fit]

Row | Compound | activity change, negative = cell killing | Potency
23 | CC(C)CCNC(=O)c1cc(Sc2ccc(F)cc2F)nc2ccccc12 | – | inconclusive: 6.31 µM [cytotoxic, partial curve]
24 | CCOc1ccccc1N1CC(c2nc3ccccc3n2CCCCOc2cc(C)ccc2C)CC1=O (stereo not given) | – | inconclusive: 20 µM [cytotoxic, single point]
25 | COc1ccccc1NC(=O)c1ccc(NC(=O)CSc2nnnn2C)cc1 | – | inconclusive: 25.1 µM [cytotoxic, single point]
26 | CN(C)c1ccc(-c2cncnc2NCCN2CCOCC2)cc1 | – | inconclusive: 25.1 µM [cytotoxic, single point]
27 | CCCOc1ccccc1-c1nc2n[nH]nc2c(=O)[nH]1 | – | inactive
28 | Fc1ccc(NCc2ccccc2-c2nnc(-c3ccccc3Cl)o2)cc1Cl | – | inconclusive: 15.8 µM [cytotoxic, single point]
29 | O=C(Nc1nsc(-c2ccccc2)n1)c1cccs1 | – | active: 5.01 µM
30 | Cc1ccc(-n2nc3c([n+]2[O-])CCc2c-3no[n+]2[O-])cc1 | – | inconclusive: 10 µM [cytotoxic, single point]
31 | COc1cccc(C(=O)N2CCc3cc(OC)c(OC)cc3C2COc2ccc3c(C)cc(=O)oc3c2)c1 (stereo not given) | – | inconclusive: 0.794 µM [cytotoxic, full curve, poor fit]
32 | COc1cc(NC(=O)c2noc3c2CC(C(C)(C)C)CC3)cc(OC)c1OC (stereo not given) | inactive: -26.2% | –
33 | Cc1ccc(NS(=O)(=O)c2ccc3[nH]c4c(c3c2)CCCCCC4)cc1C | – | inconclusive: 10 µM [cytotoxic, partial curve]
34 | CCOc1cc(C(=O)Nc2ccc3nc(N4CCN(C)CC4)cc(C)c3c2)cc(OCC)c1OCC | – | inconclusive: 3.16 µM [cytotoxic, partial curve]
35 | CCOc1ccc2nc(Cl)c(C3CC(c4ccccc4)=NN3C(=O)CCC(=O)O)cc2c1 (stereo not given) | inactive: 19.7% | –
36 | Cc1ccc(-c2nnc(Nc3ccc(O)cc3)c3ccccc23)cc1S(=O)(=O)NC(C)(C)CO | – | inconclusive: 35.5 µM [cytotoxic, single point]
37 | Cc1nn2c(C)c(C(=O)NCc3cccc(Br)c3)cnc2c1-c1ccccc1 | inactive: -2.73% | –
38 | COc1ccc(Cl)cc1NC(=O)c1noc2c1CCc1ccccc1-2 | inactive: 24.4% | –
39 | O=C(Nc1ccc(NC(=O)c2cccs2)cn1)c1ccco1 | – | active: 10 µM
40 | COc1cc(-c2nc(-c3ccccc3)c(-c3ccc(Br)cc3)[nH]2)cc(OC)c1O | – | inconclusive: 25.1 µM [cytotoxic, single point]
41 | CC(=O)N1CCc2c(sc3c2c(=O)n(Cc2ccccc2)c(=O)n3Cc2ccccc2Cl)C1 | – | inconclusive: 10 µM [cytotoxic, partial curve, poor fit]
42 | O=C(NC1C=CS(=O)(=O)C1)c1sc2ccccc2c1Cl (stereo not given) | – | inconclusive: 31.6 µM [cytotoxic, single point]
43 | Cc1ccc(NC(=O)CSc2nnc(NC(=O)NC3CCCCC3)s2)cc1 | – | inconclusive: 2.51 µM [cytotoxic, full curve]
44 | CCc1ccc(NC(=O)CCCc2nnc3n(C(C)CC)c(=O)c4sccc4n23)cc1 (stereo not given) | inactive: -8.07% | –

Row | Compound | activity change, negative = cell killing | Potency
45 | COc1ccc(CNC(=O)Cn2ccc3cc(S(=O)(=O)N4CCCC4)ccc32)c(OC)c1 | inactive: -11.6% | –
46 | Cc1ccc2[nH]c(=O)c(CN(CCCN3CCOCC3)Cc3nnnn3C3CCCC3)cc2c1 | – | inconclusive: 31.6 µM [cytotoxic, single point]
47 | Brc1ccccc1-c1nnc(-c2cccnc2)o1 | – | inconclusive: 12.6 µM [cytotoxic, single point]
48 | CCOC(=O)c1sc2ncn(CC(=O)Nc3cc(C)cc(C)c3)c(=O)c2c1C | – | inconclusive: 1.26 µM [cytotoxic, partial curve]
49 | CCC(C)NC(=O)NC1C(NC(=O)NC(C)CC)N(C)C(=O)N1C (stereo not given) | inactive: -2.32% | –
50 | CCOc1cccc(NC(=O)C2CC(=O)N(C)C(=Nc3cccc(F)c3)S2)c1 (stereo not given) | – | inconclusive: 20 µM [cytotoxic, partial curve]
51 | COc1cc(NC(=O)CN2C(=O)C(c3ccc(C)cc3)=NC23CCCCCC3)cc(OC)c1 | inconclusive: -30.8% [cytotoxic] | –
52 | Cc1cc(NC(=O)c2cc3nc(C4CC4)cc(C(F)(F)F)n3n2)no1 | inactive: 2.71% | –
53 | COc1ccc(CNC(=O)C(=O)Nc2ccccc2OC)cc1 | inactive: -8.48% | –
54 | CC(=O)c1cccc(NC(=O)c2cc3nc(C)cc(C)n3n2)c1 | – | inconclusive: 12.6 µM [cytotoxic, partial curve]
55 | CCOc1ccc(-c2nc(CSCC(=O)NCCc3ccccc3)c(C)o2)cc1 | – | inconclusive: 11.2 µM [cytotoxic, single point]
56 | CCc1ccc2oc(C(=O)N(Cc3cccc(Cl)c3)Cc3ccco3)c(C)c2c1 | inactive: -9.32% | –
57 | CC(C)(C)OC(=O)N1CCC(c2c(C(=O)N3CCN(c4ccccc4F)CC3)cnn2C(C)(C)C)CC1 | – | inconclusive: 1.26 µM [cytotoxic, single point]
58 | CCc1nnc(SC(CC)C(=O)NCCOC)c2cc3occc3n12 (stereo not given) | – | inconclusive: 31.6 µM [cytotoxic, single point]
59 | CN1CCN(C(=O)c2cnn(-c3ccccc3)c2C2CCN(C(=O)OC(C)(C)C)CC2)CC1 | – | inconclusive: 1.26 µM [cytotoxic, single point]
60 | Cc1cccc(NC(=O)CSc2nc(C)cc(C)c2C(=O)Nc2ccc(Cl)cc2)c1 | – | inconclusive: 31.6 µM [cytotoxic, single point]
61 | COc1cccc(NC(=O)Nc2cccc(-c3cn4cccnc4n3)c2)c1 | – | inconclusive: 31.6 µM [cytotoxic, single point]
62 | COc1cc(/C=C/C(=O)c2cccs2)cc(OC)c1OC | – | inconclusive: 3.98 µM [cytotoxic, full curve]
63 | O=C(Cn1c(SCC(=O)N2CCCc3ccccc32)nc2ccccc21)N1CCCC1 | – | inconclusive: 35.5 µM [cytotoxic, single point]
64 | Cc1nc2c(C(=O)NCc3ccccc3)c[nH]n2c(=O)c1Cc1ccccc1Cl | – | inconclusive: 0.631 µM [cytotoxic, full curve]
65 | CCC[C@@H]1C[C@@]1(CCC)C(NP(=O)(c1ccccc1)c1ccccc1)c1ccc(Cl)cc1 (stereo not given in full) | – | inconclusive: 20 µM [cytotoxic, single point]

Reference: PubChem BioAssay AID902 (National Center for Advancing Translational Sciences (NCATS), 2007)
